In PubChem BioAssay AID2147 (National Center for Advancing Translational Sciences (NCATS), 2009):
Hit rate of the full screen: of about 230,000 compounds, about 3,600 (1.6%) were called active. This list was built around the results that the source calls inconclusive (neither active nor inactive); the mix of calls is not that of the screen. Calls follow the shape of the dose curve; as a rule, active = well fitted inhibition curve with a large enough effect (not every such curve was filed as active); inconclusive = small, poorly fitted or top-dose-only effect, or another doubt; inactive = no such curve, though single readings can be large or run the other way. Potencies beside an inconclusive call are fits to weak or partial responses and may not hold up.

These compounds were tested against Lysine-specific demethylase 4E (Homo sapiens) (UniProt B2RXH2) (assay: qHTS Assay for Inhibitors of Human Jumonji Domain Containing 2E (JMJD2E)). Conditions: JMJD2E catalytic domain, FDH-coupled NADH fluorescence (FDH is formaldehyde dehydrogenase); series mostly up to 57.1 µM.
Also: nearly all actives have a fitted effect of over 50% in size.
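For activity change, negative = inhibition in this document: 0% = wells with enzyme and -100% = buffer wells without enzyme.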
Potency is read from the fitted curve at half-maximal effect; tags tell the direction and shape of the fitted curve.

Sequence of UniProt B2RXH2 (B2RXH2 whole entry, looked up, the tested form may be a part): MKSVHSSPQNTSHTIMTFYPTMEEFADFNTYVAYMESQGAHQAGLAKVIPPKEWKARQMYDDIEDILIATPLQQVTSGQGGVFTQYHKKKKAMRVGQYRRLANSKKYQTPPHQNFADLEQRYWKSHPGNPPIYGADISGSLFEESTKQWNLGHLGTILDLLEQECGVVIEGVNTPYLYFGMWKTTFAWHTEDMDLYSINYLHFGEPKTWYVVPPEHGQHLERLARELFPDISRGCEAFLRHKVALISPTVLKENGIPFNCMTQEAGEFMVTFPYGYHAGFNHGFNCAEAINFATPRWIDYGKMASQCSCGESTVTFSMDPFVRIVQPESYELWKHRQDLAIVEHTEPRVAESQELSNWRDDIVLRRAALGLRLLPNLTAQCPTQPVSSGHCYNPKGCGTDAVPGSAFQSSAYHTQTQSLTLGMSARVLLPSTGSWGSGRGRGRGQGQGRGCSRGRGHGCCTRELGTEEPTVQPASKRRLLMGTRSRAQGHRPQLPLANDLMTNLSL

| SMILES | Potency | activity change, negative = inhibition |
| --- | --- | --- |
| Cc1cc(NC(=O)C2C3C(=O)N(Cc4ccc(Cl)cc4)C(C(=O)NCc4ccccc4)C34C=CC2(C)O4)no1 (stereo unspecified) | inactive |  |
| CCN(CC)C(=O)c1sc2nc(-c3cccs3)cc(-c3cccs3)c2c1N | inconclusive: 25.1 µM [inhibitor, single point] |  |
| CN(C)/N=C/C=C1\CCC/C(=C\c2ccc(F)c(F)c2)C1=O | inactive |  |
| CC(C)CNC(=S)N1CCC(C(=O)c2ccc3c(c2)OCCO3)CC1 | inactive |  |
| O=[N+]([O-])c1ccccc1OCCCNCc1ccccc1 | inconclusive: 39.8 µM [inhibitor, single point] |  |
| COc1ccc(C)cc1NC(=O)c1nn(C)cc1Br | inactive |  |
| CCN(c1ccccc1)S(=O)(=O)c1ccc(C(=O)Nc2nnc(-c3ccco3)o2)cc1 | inconclusive: 35.5 µM [inhibitor, single point] |  |
| O=C(O)C1CCNCC1 | inactive |  |
| COCCNC(=O)/C(C#N)=C/c1cc(C)n(-c2ccc(C)cc2)c1C | inconclusive: 35.5 µM [inhibitor, single point] |  |
| Cc1ccc(S(=O)(=O)c2c(N)n(NC(=O)c3ccccc3C)c3nc4ccccc4nc23)cc1 | inconclusive: 31.6 µM [inhibitor, partial curve] |  |
| O=C(O)c1ccccc1C1Nc2ccccc2C(=O)N1CCCN1CCOCC1 (stereo unspecified) | inconclusive: 28.2 µM [inhibitor, partial curve] |  |
| COc1cccc(OC)c1C(=O)Nc1nc2ccc(S(C)(=O)=O)cc2s1 | inconclusive: 35.5 µM [inhibitor, partial curve] |  |
| O=C(N/N=C/c1c(Cl)nc2ccccn2c1=O)c1cccnc1 | inconclusive: 35.5 µM [inhibitor, partial curve] |  |
| O=C(CCCOc1ccccc1)NC(=S)Nc1ccccc1 | inactive |  |
| O=C(c1ccccc1)n1ccc(-c2cnc(-c3ccccc3)s2)n1 | inconclusive: 3.55 µM [inhibitor, full curve] |  |
| CC/C(=C/c1sc2ccc(C)cc2[n+]1CCO)SC | inconclusive: 39.8 µM [inhibitor, single point] |  |
| COc1ccc2cc(CN(CC3COCCO3)S(=O)(=O)c3ccccc3)c(=O)[nH]c2c1 (stereo unspecified) | inconclusive: 39.8 µM [inhibitor, single point] |  |
| CC1=CC(C)(C)Nc2ccc(OC(=O)CCN3C(=O)c4ccccc4C3=O)cc21 | inactive |  |
| O=C(c1ccc(C(F)(F)F)cc1)N1CCC(=O)N(C(COCc2ccc(Cl)cc2)Cc2ccccc2)CC1 (stereo unspecified) | inactive |  |
| CC(C)NC(=O)/C(=C\c1cccc([N+](=O)[O-])c1)NC(=O)c1ccccc1 | inactive |  |
| Cn1c(=O)c2c(nc(CN3CCC(C(N)=O)CC3)n2Cc2ccccc2F)n(C)c1=O | inactive |  |
| COC(=O)c1cccc(NC(=O)/C=C/c2ccc3c(c2)OCO3)c1 | inconclusive: 35.5 µM [inhibitor, single point] |  |
| CC(=O)c1cc(O)c2ccccc2c1O | active: 14.1 µM |  |

| SMILES | Potency | activity change, negative = inhibition |
| --- | --- | --- |
| COc1cc(/C=C/c2ccc3cccc(OC)c3n2)c(O)c([N+](=O)[O-])c1 | inactive |  |
| CN(C)c1ccc(/C=N/Nc2cc(N3CCOCC3)nc(N3CCOCC3)n2)cc1 | inconclusive: 31.6 µM [inhibitor, partial curve] |  |
| CCOC(=O)CSc1ccc(S(=O)(=O)N(C)C2CCCCC2)cc1[N+](=O)[O-] | inactive |  |
| CCOC(=O)C1CCN(C(=O)COc2ccc(S(=O)(=O)N3CCCC3)cc2C)CC1 | inactive |  |
| Cc1ccccc1S(=O)(=O)Nc1nc2ccccc2nc1NCCO | inconclusive: 31.6 µM [inhibitor, partial curve] |  |
| CCOc1ccc(OCC)c(NC(=O)CN2CCN(c3cccc(C)c3)C(C)C2)c1 (stereo unspecified) | inconclusive: 39.8 µM [inhibitor, single point] |  |
| COc1ccc(CC(=O)OCc2cc3cccc(C)c3[nH]c2=O)cc1 | inconclusive: 39.8 µM [inhibitor, single point] |  |
| COc1ccc(CCNC(=O)CSc2nc3[nH]ncc3c(=O)n2-c2ccccc2Br)cc1OC | inactive |  |
| COc1ccc(N=C2CCCN2CC(N)=O)cc1 | inactive |  |
| COC(=O)C1=C(C(=O)OC)[C@@H]2N(Cc3ccccc3)c3ccccc3[C@@]23C[C@@H](C(=O)OC)N(S(=O)(=O)c2ccc(C#N)cc2)C3=N1 |  | inactive: -8.83% [at 11.4 µM] |
| c1ccc(-c2nc3c([nH]2)CCc2nonc2-3)cc1 | inconclusive: 39.8 µM [inhibitor, single point] |  |
| COc1ccc2c(c1)O[C@@H](c1ccc3c(c1)OCO3)[C@H](OC(=O)Nc1ccc(OC(F)F)cc1)C2=O | inactive |  |
| COc1ccc(/C=N/NC(=S)SC)cc1OC | inconclusive: 17.8 µM [inhibitor, partial curve, poor fit] |  |
| N#Cc1cnn2c(-c3cccc(C(F)(F)F)c3)ccnc12 | inconclusive: 31.6 µM [inhibitor, partial curve] |  |
| Cc1ccc(-c2nn(-c3ccccc3)cc2C(=O)Nc2ccc(C)c(S(=O)(=O)N3CCOCC3)c2)cc1 | inconclusive: 28.2 µM [inhibitor, partial curve] |  |
| C=CCNCCCCOc1ccc(Br)cc1C | inconclusive: 28.2 µM [inhibitor, single point] |  |
| CCN(CC)C(=O)c1sc(NC(=O)c2ccc(C)c([N+](=O)[O-])c2)c(C#N)c1C | inactive |  |
| O=C(CSc1nc2ccccc2c(=O)n1-c1ccccc1)N/N=C/C=C/c1ccccc1[N+](=O)[O-] | inactive |  |
| COc1ccc(OC)c(C(=O)CSc2nnc(Cc3cccs3)n2CCc2ccccc2)c1 | inconclusive: 39.8 µM [inhibitor, single point] |  |
| COCCN(CCOC)C(=O)c1cc2c(=O)n3ccccc3nc2s1 | inconclusive: 22.4 µM [inhibitor, partial curve] |  |
| C=CCn1c(O)c(CN2CCCCC2)c(C)c(C#N)c1=O | inconclusive: 35.5 µM [inhibitor, single point] |  |
| C=CCN1C(=O)N/C(=C/c2ccc(N3CCOCC3)o2)C1=O | inactive |  |
| CCCN1C(=O)/C(=N\OCC(=O)NCC(F)(F)F)c2ccccc21 | inconclusive: 39.8 µM [inhibitor, single point] |  |
